Measured values from the supplement of paper PMC6089552.
The campaign covered roughly 3,200 compounds. About 300 (9.4%) showed activity. The entries are a selection whose mix differs from that of the whole data set.

Test system: A673/TR/shEF
Assay: cell viability (LOESS-normalised, relative to median of negative controls) (log2 ratio); higher = more viable cells (less compound effect), active = hit call of the paper (over 3 MAD below the median)
Conditions: treatment time: 72 h
Method in brief: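 A673/TR/shEF Ewing sarcoma cells were plated at 1,500 per well in 384-well plates and cultured with or without doxycycline, added 24 h before compounds, to induce EWS-FLI1 shRNA knockdown. Library compounds at two or more concentrations, alongside DMSO controls, were applied for three days. Cell viability was measured by CellTiter-Glo luminescence on an Envision reader. Readings were LOESS-corrected per plate, divided by the median of negative controls and log2-transformed, and hits were wells lying at least three median absolute deviations from the median of all screened wells.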

[1] = 0.25 µM, library screen: screen1, EWS-FLI1 expression: high (no doxycycline)
[2] = 0.25 µM, library screen: screen1, EWS-FLI1 expression: low (doxycycline-induced shRNA knockdown)
[3] = 2.5 µM, library screen: screen1, EWS-FLI1 expression: high (no doxycycline)
[4] = 2.5 µM, library screen: screen1, EWS-FLI1 expression: low (doxycycline-induced shRNA knockdown)
[5] = 0.25 µM, library screen: screen2, EWS-FLI1 expression: high (no doxycycline)
[6] = 0.25 µM, library screen: screen2, EWS-FLI1 expression: low (doxycycline-induced shRNA knockdown)
[7] = 2.5 µM, library screen: screen2, EWS-FLI1 expression: high (no doxycycline)
[8] = 2.5 µM, library screen: screen2, EWS-FLI1 expression: low (doxycycline-induced shRNA knockdown)
[9] = 8.3 µM, library screen: screen3, EWS-FLI1 expression: high (no doxycycline)
[10] = 25 µM, library screen: screen3, EWS-FLI1 expression: high (no doxycycline)

Measured: cell viability (log2)

C[N+]1(C)C2CC(OC(=O)C(CO)c3ccccc3)CC1C1OC12 (stereo not given)
inactive: [1] 0.0929 | [2] 0.0137 | [3] 0.182 | [4] 0.0439

C[C@]12CC[C@H]3[C@@H](CC[C@]4(O)C[C@@H](O)CC[C@]34C=O)[C@@]1(O)CC[C@@H]2C1=CC(=O)OC1
inactive: [1] 0.0251 | [2] -0.17
active: [3] -1.21 | [4] -1.3

CCN(CC)C(=O)N[C@H]1C=C2c3cccc4[nH]cc(c34)C[C@H]2N(C)C1
inactive: [5] 0.144 | [6] 0.146 | [7] 0.172 | [8] 0.138

COC(=O)COc1ccc(Cl)cc1Cl
inactive: [1] 0.022 | [2] -0.0423 | [3] 0.11 | [4] 0.0409

C#CCN(C)C(C)Cc1ccccc1 (stereo not given)
inactive: [5] 0.172 | [6] 0.0896 | [7] 0.201 | [8] 0.16

S=C(NC1CCCCC1)N1CCC(c2cnc[nH]2)CC1
inactive: [5] 0.127 | [6] 0.0827 | [7] 0.121 | [8] 0.058

NC(N)=NOCC[C@H](N)C(=O)O
inactive: [1] 0.0571 | [2] 0.021 | [5] 0.136 | [6] 0.123 | [3] 0.165 | [4] 0.0918 | [7] 0.125 | [8] 0.0815

N[C@@H](Cn1oc(=O)[nH]c1=O)C(=O)O
inactive: [5] 0.128 | [6] 0.0395 | [7] 0.233 | [8] 0.0667

COC(C)(C)CCCC(C)C/C=C/C(C)=C/C(=O)OC(C)C (stereo not given)
inactive: [1] -0.00169 | [2] 0.0238 | [3] 0.116 | [4] 0.0204

CC(C)[N+](C)(CCC(C(N)=O)(c1ccccc1)c1ccccc1)C(C)C
inactive: [1] 0.109 | [2] -0.026 | [3] 0.23 | [4] 0.0352

CC1=C[C@@H]2c3cccc4[nH]cc(c34)C[C@H]2N(C)C1
inactive: [5] 0.126 | [6] 0.0939 | [7] 0.18 | [8] 0.0817

C#C[C@]1(O)CC[C@H]2[C@@H]3CCC4=CC(=O)CC[C@]4(C)[C@H]3CC[C@@]21C
inactive: [1] 0.0673 | [2] 0.126 | [3] 0.0646 | [4] 0.0208

COP(=S)(OC)SCn1nnc2ccccc2c1=O
active: [9] -0.267 | [10] -0.422

COP(=S)(OC)Oc1ccc(SC)c(C)c1
inactive: [1] 0.104 | [2] 0.089 | [3] 0.0562 | [4] 0.116

O=c1[nH]c2ccccc2n1CCCN1CCC(n2c(=O)[nH]c3cc(Cl)ccc32)CC1
inactive: 0.103 µM, library screen: screen3, EWS-FLI1 expression: high (no doxycycline) -0.00347 | 0.103 µM, library screen: screen3, EWS-FLI1 expression: low (doxycycline-induced shRNA knockdown) 0.0546 | [1] 0.0477 | [2] 0.0315 | [5] 0.114 | [6] 0.0927 | 0.308 µM, library screen: screen3, EWS-FLI1 expression: high (no doxycycline) -0.044 | 0.308 µM, library screen: screen3, EWS-FLI1 expression: low (doxycycline-induced shRNA knockdown) 0.0558 | 0.926 µM, library screen: screen3, EWS-FLI1 expression: high (no doxycycline) -0.0666 | 0.926 µM, library screen: screen3, EWS-FLI1 expression: low (doxycycline-induced shRNA knockdown) -0.0372 | [3] 0.086 | [4] 0.163 | [7] 0.143 | [8] 0.121 | 2.8 µM, library screen: screen3, EWS-FLI1 expression: high (no doxycycline) -0.00881 | 2.8 µM, library screen: screen3, EWS-FLI1 expression: low (doxycycline-induced shRNA knockdown) 0.00821 | [9] 0.0255 | 8.3 µM, library screen: screen3, EWS-FLI1 expression: low (doxycycline-induced shRNA knockdown) 0.0576 | [10] -0.0563 | 25 µM, library screen: screen3, EWS-FLI1 expression: low (doxycycline-induced shRNA knockdown) -0.037

C[C@]12CCC(=O)C=C1C=CC1C2CC[C@@]2(C)C1CC[C@@]2(O)CCC(=O)O (stereo not given in full)
inactive: [1] 0.0813 | [2] -0.0168 | [3] 0.15 | [4] -0.00183

CC(=O)Oc1c2c(c(CC=C(C)C)c3c1C(=O)C1=C[C@@H]4CC5C(C)(C)OC(C/C=C(\C)C(=O)O)(C4=O)[C@@]15O3)OC(C)(CCC=C(C)C)C=C2 (stereo not given in full)
inactive: [1] 0.0664 | [2] 0.0597 | [3] -0.0173 | [4] 0.269

O=[N+]([O-])c1ccc2nc(N3CCNCC3)ccc2c1
inactive: [5] 0.232 | [6] 0.0568 | [7] 0.304 | [8] 0.0795

c1ccc2c(N3CCNCC3)cccc2c1
active: [7] -0.803 | [8] -0.746
inactive: [5] 0.144 | [6] -0.113

c1cc2c(cc1[C@H]1OC[C@H]3[C@@H]1CO[C@@H]3c1ccc3c(c1)OCO3)OCO2
inactive: [1] 0.0516 | [2] 0.00549 | [3] 0.0823 | [4] 0.0252

Nc1ccc2c(n1)[nH]c1ccccc12
inactive: [5] 0.156 | [6] 0.0674 | [7] 0.0702 | [8] 0.0934

CC(C)=CCCC1(C)C=Cc2c(O)c3c(c(CC=C(C)C)c2O1)OC12C(CC4CC1C(C)(C)OC2(C/C=C(/C)C(=O)O)C4O)C3=O (stereo not given)
inactive: [1] 0.0661 | [2] 0.00238 | [3] 0.127 | [4] 0.0888

CCCN(CCC)CCc1c[nH]c2ccc(C(N)=O)cc12
inactive: [5] 0.0974 | [6] 0.0364 | [7] 0.198 | [8] 0.0861
